The source of these data is the supplement of paper PMC4604168 (melanoma cell lines).

Some of the results follow. Most values come without repeats; read them as rough.
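Note: cell number obtained by counting DAPI-stained nuclei in high-throughput microscope images with image analysis software, screen run in 1,536-well plates.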

The experiment relates to UACC257. The experiment can be described thus: cell count relative to DMSO control; melanoma cells; higher = more viable cells. As to conditions: library dose: low library concentration; 72 h.
In turn, `O=C(O)[C@@H]1[O][Sb](=[O])([O][Sb]2(=[O])[O][C@H]([C@H](O)CO)[C@H](O)[C@H](C(=O)O)[O]2)[O][C@H]([C@H](O)CO)[C@@H]1O` (stereo not given in full) [stibogluconate] + CN(C)S(=O)(=O)c1ccc2c(c1)/C(=C/c1cc3c([nH]1)CCCC3)C(=O)N2 [SU6656] (first compound 2 µM, partner dose 0.4 µM) yielded a cell count of 84.7%. `O=C(O)c1ccc2c(c1)nc(Nc1cccc(Cl)c1)c1ccncc12` + O=C1NC(=O)/C(=C/c2ccc(-c3ccc(F)cc3O)o2)S1 [AS252424] (first compound 0.4 µM, partner dose 1 µM) returned a cell count of 87.9%. As to `O=C(Nc1cc(C(F)(F)F)cc(C(F)(F)F)c1)c1cc(Cl)ccc1O` + COc1cc2ncnc(Nc3ccc(Oc4ccccc4)cc3)c2cc1OC [SrcI1] (first compound 0.016 µM, partner dose 2 µM), the cell count worked out at 91%.

In turn, `O=C(O)[C@@H]1[O][Sb](=[O])([O][Sb]2(=[O])[O][C@H]([C@H](O)CO)[C@H](O)[C@H](C(=O)O)[O]2)[O][C@H]([C@H](O)CO)[C@@H]1O` (stereo not given in full) [stibogluconate] + COc1cc(Nc2ncc(F)c(Nc3ccc4c(n3)NC(=O)C(C)(C)O4)n2)cc(OC)c1OC [Tamatinib] (first compound 2 µM, partner dose 0.4 µM) yielded a cell count of 59.1%.

`O=C(Nc1cc(C(F)(F)F)cc(C(F)(F)F)c1)c1cc(Cl)ccc1O` + CC(C)CCN1c2nc(Nc3cc(F)c(O)c(F)c3)ncc2N(C)C(=O)C1C [BID1870] (first compound 0.016 µM, partner dose 0.2 µM) displayed a cell count of 85.2%.
